Results from ChEMBL document CHEMBL4888484, “Replenishing the malaria drug discovery pipeline: Screening and hit evaluation of the MMV Hit Generation Library 1 (HGL1) against asexual blood stage Plasmodium falciparum ,using a nano luciferase reporter read-out” (2022).
The campaign covered roughly 150,000 compounds. About 540 (0.36%) showed an effect of 50% or more. The list shows a part of the results.

system: Plasmodium falciparum; assay: Primary screen in NF54 nanoGlo assay, in single point, at 2uM, 72h; a lower Z score goes with more inhibition; assay type: functional, Erythrocyte; conditions: timepoint 72 hour

| Structure (SMILES) | % Inhibition | Z score |
| --- | --- | --- |
| CCCCNc1c2c(nc3ccccc13)CC(C)(C)C[C@@H]2O | -13% | 1.18 |
| COC1CCN(C[C@]2(O)CCCN(CC3CCCCC3)C2=O)CC1 | -5% | 0.69 |
| CCN(CC)C(=O)Cn1cc(C(=O)NCCC(c2ccccc2)c2ccccc2)nn1 | -8% | 1.52 |
| CCc1noc(COCC(=O)N2CCOc3ncccc3C2)n1 | 7% | -1.18 |
| O=C(Nc1ccc(F)cc1)c1cc(-c2ccccc2Cl)nc2cc(-c3ccccc3)nn12 | 1% | -0.13 |
| Cc1ccc(OCC(=O)Nc2ccc(N3CCOCC3)nc2)cc1 | 11% | -1.45 |
| O=C(c1c(-c2ccccc2)cc(=O)n2c1CCC2)N1CCCC1 | -6% | 0.72 |
| Cc1ccc(CNCc2c(C(=O)N3CCCCCCC3)nc3ccc(Cl)cn23)o1 | -6% | 0.78 |
| CCCN(CCO)C(=O)Nc1ccc(Cl)cc1C | -5% | 0.55 |
| CCCCCNC(=O)c1snc(-c2ccncc2)c1N | -14% | 1.32 |
| CC(=O)c1sc(NCc2ccco2)nc1C | -13% | 1.1 |
| CC(C)COc1ccc(NC(=O)c2csnn2)cn1 | 3% | -0.65 |
| O=S(=O)(C[C@H]1C[C@H]2CCCC[C@H]21)NCc1nc(C2CC2)no1 | -5% | 0.75 |
| O=C(c1ccnc(-n2cnnc2)c1)N1CCC([C@H](O)c2cccs2)CC1 | -2% | 0.26 |
| CC(=O)N[C@@H]1CN(C(=O)NCc2ccn(C(C)C)n2)C[C@H]1c1ccnn1C | -10% | 1.6 |
| NC(=O)[C@]1(O)CCCN(Cc2nccn2C(F)F)C1 | 0% | -0.03 |
| O=C(NCc1ccccc1)C1=NCCCN1 | -1% | 0.14 |
| CCOc1ccc(-c2cc3c(=O)n(CCC(=O)N4CCCC4)ccn3n2)cc1 | 35% | -4.66 |
| C=CCN(CCC(=O)NC(N)=O)c1nc2c(s1)CCCC2 | -25% | 2.26 |
| O=C(ONc1ccccc1)C1=CC=CN=CN1 | 2% | -0.34 |
| Brc1ccc(-c2nnc(CN3CCc4ccccc4C3)o2)cc1 | 3% | -0.32 |
| O=C(c1ccc(CN2CCc3ccccc3C2)cc1)N1CCN2CCC[C@H]2C1 | -3% | 0.64 |
| OCC[C@H](NCc1ncccc1Cl)c1ccc(Cl)cc1 | 8% | -1.28 |
| C[C@@]12C=C[C@]3(O1)C(C(=O)NC1CCCCC1)N(C1CCCCCC1)C(=O)[C@@H]3C2C(=O)Nc1ccc(F)cc1 (stereo partly drawn) | 7% | -1.33 |
